Where “and” joins values, the source holds several entries; their conditions need not be identical. Equal values may be shown once. Hit rate of the full screen: of about 50,000 compounds, about 800 (1.6%) showed an effect of 50% or more. This is one part of the list.
What follows are compounds tested against Bcl-2-like protein 10 (Homo sapiens) (UniProt Q9HD36) (assay: Phenotype converters, Bcl-B/TR3 peptide binding displacement, primary biochemical FP (AID 1240;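 note: 0% = Bcl-B with tracer peptide and DMSO and 100% = tracer peptide lacking Bcl-B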)). Settings: GST-Bcl-B / FITC-TR3 peptide fluorescence polarization; stronger effect = higher value; compound at 3.75 mg/L.
UniProt Q9HD36, sequence (Q9HD36 whole entry, looked up): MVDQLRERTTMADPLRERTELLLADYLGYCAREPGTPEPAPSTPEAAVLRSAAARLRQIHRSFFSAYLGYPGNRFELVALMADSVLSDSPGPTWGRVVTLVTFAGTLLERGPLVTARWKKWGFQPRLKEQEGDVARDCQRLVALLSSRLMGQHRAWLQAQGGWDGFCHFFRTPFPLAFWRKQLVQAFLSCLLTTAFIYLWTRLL

| SMILES | displacement |
| --- | --- |
| CSCCC(NC(=O)c1ccccc1)C(=O)OCC(=O)Nc1nnc(C)s1 (stereo not given) | 6.4% |
| CN(C)C1=C/C(=N/S(=O)(=O)c2ccccc2)c2ccccc2C1=O | -2.8% |
| O=C(Nc1ccc(N2CCOCC2)cc1)c1ccc([N+](=O)[O-])cc1 | 8.4% |
| O=C(O)c1cn(-c2ccccc2)nc1-c1ccc(Br)cc1 | -11.3% |
| O=C(Nc1ccc(Cl)c(Cl)c1)Nc1nnc(-c2ccccc2)s1 | 7.7% |
| Cc1ccc(S(=O)(=O)NC(=NC(Cc2ccccc2)C(=O)O)c2ccccc2)cc1 (stereo not given) | 14.2% |
| CCOC(=O)c1c(NC(=O)c2cc([N+](=O)[O-])ccc2Cl)sc2c1CCC2 | 3.7% |
| CC(=O)Nc1cc(-c2cccc(C)c2)[nH]n1 | 15.5% |
| C/C(=C\C(=O)OCCOC(=O)/C=C(\C)NC1CC(C)(C)NC(C)(C)C1)NC1CC(C)(C)NC(C)(C)C1 | 5.4% |
| S=c1[nH]nc(-c2ccccc2)n1/N=C/c1ccc(-c2ccccc2Cl)o1 | -3.6% |
| O=C(O)CCCCCN1C(=O)C(=O)/C(=C(/O)c2ccccc2)C1c1ccc2c(c1)OCO2 (stereo not given) | -11.1% |
| Cn1c2c(c3cc(C4CCCCC4)ccc31)CCC/C2=N\O | -7.9% |
| NC(=O)C1CCN(C(=O)c2ccccc2NC(=O)c2ccccc2Br)CC1 | -7.1% |
| COc1cccc(C(=O)N2N=C(c3cccc([N+](=O)[O-])c3)CC2(O)C(F)(F)F)c1 (stereo not given) | 0.8% |
| C=CCNC(=O)C(=O)N/N=C/c1ccccc1 | 6.1% |
| O=C(Cc1ccc(Cl)cc1)NCc1ccco1 | 16.5% |
| O=C(Nc1nc2ccccc2s1)c1ccc2c(c1)OCO2 | 5.7% |
| COc1ccc(NC(=O)CC2CCC2)c(OC)c1 | 10.6% |
| Cc1cccn2c(=O)c(/C=C3\SC(=S)N(Cc4ccccc4)C3=O)c(N3CCOCC3)nc12 | -12.8% |
| CN(CP(=O)(O)CCc1ccccc1)S(C)(=O)=O | -1.2% |
| CC(C)C(C(=O)O)N1C(=O)/C(=C\c2ccccn2)SC1=S (stereo not given) | -2.2% |
| O=C(Nc1cccc(C(F)(F)F)c1)C1C2C3CCC(C3)C12 (stereo not given) | -1.2% |

| SMILES | displacement |
| --- | --- |
| O=S(=O)(Nc1ccc(S(=O)(=O)N2CCOCC2)cc1)c1ccccc1 | -1% |
| O=C(CC1SC(=Nc2ccccc2)N(c2ccccc2)C1=O)Nc1ccc(F)cc1 (stereo not given) | -11.4% |
| O=S(=O)(NCCO)c1ccc2c(c1)C(=NO)c1cc(S(=O)(=O)NCCO)ccc1-2 | -1.5% |
| CCOC(=O)COc1ccccc1/C=N/NC(=O)COc1cccc(Br)c1 | -3% |
| O=C(O)c1cnn2c1NC(c1ccc(F)cc1)CC2C(F)(F)F (stereo not given) | 9.4% |
| O=C(NN1C(=O)/C(=C/c2ccccc2)SC1=S)c1cccnc1 | -10.9% |
| Cc1nc2ccccn2c1C(=O)NC1CCCC1 | 12.7% |
| O=C(COc1ccc(Br)cc1)Nc1cccc(I)c1 | 13.6% |
| O=C(NCCOc1ccccc1)c1cccc2ccccc12 | -17.9% |
| O=C(Nc1ccccc1Cl)c1cncc(Br)c1 | 118% |
| O=C(CCCN1C(=O)/C(=C\c2cccs2)SC1=S)Nc1ccccc1O | 10.6% |
| NS(=O)(=O)c1ccc(N=Nc2c(-c3ccccc3)[nH]n(-c3nc(-c4ccccc4)cs3)c2=O)cc1 | -7.6% |
| O=C(Nc1ccc(Oc2ccccc2)cc1)c1ccc(Cl)cc1[N+](=O)[O-] | -5.8% |
| CCOC(=O)c1c(C)n(-c2ccc(OCC)cc2)c2ccc(O)cc12 | -6.7% |
| COc1ccc(CCNC(=O)c2ccc(C#Cc3ccccc3)cc2)cc1OC | 3.1% |
| CCOc1ccc2nc(SCC(=O)Nc3ccccc3OCC)sc2c1 | -8.1% |
| CC1(C)CC(=O)C/C(=N/NC(=O)c2cc3ccccc3cc2O)C1 | -15.8% |
| O=C(O)c1cc2ccccc2c([N+](=O)[O-])c1O | 7.9% |
| CCOC(=O)c1c(NC(=O)C23CC4CC(CC(C4)C2)C3)sc(C(=O)Nc2ccccc2C)c1C | 49.5% |
| COc1cc(C(=O)NCCc2nc3ccccc3[nH]2)cc(OC)c1OC | -4.4% |
| COc1cc([N+](=O)[O-])ccc1NC(=O)c1cccc2ccccc12 | 18.9% |
| CCC(C#CCN1CCCCC1)(CC)OCCC#N | -2.6% |

| SMILES | displacement |
| --- | --- |
| CCOC(=O)c1sc(NC(=O)c2cc([N+](=O)[O-])ccc2Cl)c(C(=O)OCC)c1C | -7.6% |
| CCC1CCCCN1Cc1c(O)ccc2c(=O)c(-c3ccccc3)coc12 (stereo not given) | -10% |
| CCOC(=O)c1sc(NC(=O)c2cc3n(n2)C(C(F)(F)F)CC(c2ccccc2)N3)c(C(=O)OCC)c1C (stereo not given) | 5.8% |
| O=C(CCCOc1ccc(Cl)cc1Cl)Nc1ncn[nH]1 | 5.1% |
| COc1cc2c(cc1NC(=O)CN1C(=O)c3ccccc3C1=O)oc1ccccc12 | -0.6% |
| Cc1cc([N+](=O)[O-])ccc1-c1ccc(C(=O)Nc2ccc3c(c2)oc2ccccc23)o1 | -10.8% |
| COc1ccccc1-n1c(SCC(=O)c2ccc(Cl)cc2)nc2ccccc2c1=O | -0.7% |
| CC1=C(C)CC2C(=O)N(c3cccc(C(F)(F)F)c3)C(=O)C2C1 (stereo not given) | -12.8% |
| COc1cc(/C=N/N2C(=O)c3cccc4cccc(c34)C2=O)cc(I)c1O | 7.1% |
| Cc1cnc2sc(C(=O)Nc3ccccc3)c(C(=O)O)n2c1=O | -5.8% |
| Cc1ccc(C2(C)NN=C(c3ccccc3)S2)o1 (stereo not given) | -3.5% |
| Cc1cc(C)c(C#N)c(SCc2ccc(Br)cc2)n1 | 13.8% |
| Cc1cccc(N2C(=O)C(Cl)=C(Nc3ccc(C)c(Cl)c3)C2=O)c1 | 1.9% |
| O=C(Nc1ccc(I)cc1)C1COc2ccccc2O1 (stereo not given) | -6.8% |
| CCN(CC)CCSc1nc(O)c(Cc2ccccc2)c(=O)[nH]1 | -7.1% |
| COc1ccc(N(CC(=O)Nc2c(C)n(C)n(-c3ccccc3)c2=O)S(=O)(=O)c2ccccc2)c(OC)c1 | 1.6% |
| Cc1nn(C)c2[nH]c(C(F)(F)F)cc(=O)c12 | 11.5% |
| CCOC(=O)C1NN=C(C(=O)c2ccccc2)C1c1ccc(OC)cc1 (stereo not given) | -6.5% |
| CCOc1ccc2c(CC)cc(=O)oc2c1 | 12.3% |
| COc1ccc(C(=O)N2N=C(c3ccc(Br)cc3)CC2(O)C(F)(F)F)cc1 (stereo not given) | -6.7% |
| CCOC(=O)C1=C(C)N=c2s/c(=C\c3ccc(I)cc3)c(=O)n2C1c1ccc(OC)c(OC)c1 (stereo not given) | 111% |
| O=C1c2ccc(Oc3ccc([N+](=O)[O-])cc3)cc2C(=O)N1c1cccnc1 | 10% |

| SMILES | displacement |
| --- | --- |
| CCCOC(=O)NC(c1ccccc1)C(Cl)(Cl)Cl (stereo not given) | 0.7% |
| Cc1ccccc1C1C(C=O)=C(c2cccs2)Oc2ccccc21 (stereo not given) | 6% |
| Cc1cccc(NCC(O)Cn2c3ccccc3c3ccccc32)c1C (stereo not given) | -1.9% |
| COc1ccc(/C=C2/SC(=S)NC2=O)cc1OCc1ccc(Cl)cc1 | 4.2% |
| CC(=O)CC1(O)C(=O)Nc2ccc(Br)cc21 (stereo not given) | 10.6% |
| O=C(NCC1CCCO1)c1ccc2c(c1)C(=O)N(N1C(=O)c3ccccc3C1=O)C2=O (stereo not given) | -2.8% |
| Cc1ccc(S(=O)(=O)NCCSCc2ccccc2Cl)cc1[N+](=O)[O-] | -8.5% |
| CCCCCCCNc1nc(OC)nc(N2CCCCC2)n1 | 0.8% |
| O=C(Nc1ncc(Cc2ccc(Cl)cc2Cl)s1)c1ccccc1Br | 12.1% |
| O=C(COc1ccc(Cl)cc1Cl)N1CCN(c2cccc(Cl)c2)CC1 | -5% |
| Cc1cc(Cl)ccc1NS(=O)(=O)c1cccc([N+](=O)[O-])c1 | -1.2% |
| Cc1cc(C)cc(NC(=O)COc2ccccc2)c1 | 4.6% |
| Cc1ccc(-c2ccccc2)n1-c1cccc2cccnc12 | 12.2% |
| COc1ccc(C(=O)c2c(C)oc3c2cc(O)c2ccccc23)cc1 | 6.3% |
| CN1CCN(/N=C/c2ccc([N+](=O)[O-])s2)CC1 | -2.3% |
| NS(=O)(=O)c1cccc(NC(=O)Cc2ccccc2)c1 | -11.1% |
| COc1cc(CNc2cccc(C)c2)cc(OC)c1OC | 5.3% |
| COc1cccc(N2C(=O)/C(=C/c3cccc4ccccc34)SC2=S)c1 | 6.6% |
| COc1ccc(C)cc1NC(=O)C(=O)NCCCO | 10.3% |
| CCCCCCCN1C(=O)/C(=C2\SC(=S)NC2=O)c2ccccc21 | 7.1% |
| COc1cc(C(=O)Nc2ccc3oc(-c4cccnc4)nc3c2)cc(OC)c1OC | 4% |
| CC(=O)Nc1ccccc1NC(=O)c1ccccc1Br | 0% |

| SMILES | displacement |
| --- | --- |
| CCC(=O)NC(Nc1cc(Cl)ccc1OC)(C(F)(F)F)C(F)(F)F | -9.3% |
| O=C(Nc1sc2c(c1C(=O)N1CCCCC1)CCCC2)c1cccs1 | 3% |
| Cc1ccc(NC(=O)c2ccc(-c3ccccc3)cc2)cc1F | -6% |
| O=C1CC(n2cnc3ccccc32)C(=O)N1c1ccccc1 (stereo not given) | 0.5% |
| COc1ccc(NC(=O)CSc2ncccn2)cc1 | 5.6% |
| CCOC(=O)C1=C(C)NC(=S)NC1c1cccc(C)c1 (stereo not given) | -2.8% |
| Cc1ccc(C(=O)Nc2cccc(-c3nc4ccccc4s3)c2C)cc1C | 2.3% |
| Cc1nnc(SCC(=O)NC(C)c2ccccc2)[nH]c1=O (stereo not given) | -3.9% |
| CCCNC(=O)c1c(NC(=O)c2ccccc2C)sc2c1CCC2 | -14.5% |
| CCOC(=O)C(=O)c1cc(-c2ccccc2)c(-c2ccccc2)s1 | 7.9% |
| Cc1cc(C)nc(NC(=O)CC(c2ccccc2)c2ccccc2)c1 | 4.1% |
| COC(=O)C(NC(=O)C(C)NC(=O)OCc1ccccc1)C(C)C (stereo not given) | -10.4% |
| O=C(Nc1ccc(S(=O)(=O)Nc2ncccn2)cc1)c1cc2ccccc2o1 | -2.5% |
| CC(=O)Oc1ccc(-c2cccc(C(=O)O)c2)cc1 | -7.2% and 9.3% |
| O=C(Nc1ccc(S(=O)(=O)N2CCOCC2)cc1)c1ccc(Cl)cc1 | -13.6% |
| COC(=O)C1=C(C)N(C)C(=O)NC1c1ccccc1OCc1ccccc1 (stereo not given) | 0.6% |
| O=C(Oc1ccc(/C=N/O)cc1)c1ccc(Br)cc1 | 1.6% |
| CNCCOc1cc(C)nc(-c2ccccc2)n1 | 10.2% |
| O=[N+]([O-])c1ccc(/C=N/Nc2ccc(C(F)(F)F)cn2)cc1 | -1% |
| COC(=O)c1ccc(-c2nnc(Nc3ccccc3C)c3ccccc23)cc1 | 21.6% |
| O=C(O)c1cccc(-c2ccc(/C=C3\SC(=S)N(c4cccc(F)c4)C3=O)o2)c1 | -46.8% |
| COc1ccccc1/C=C1\SC(=S)N(c2ccc(Br)cc2)C1=O | 7.7% |
